# Test results taken from paper PMC7819943, “Rice protein-binding microarrays: a tool to detect cis-acting elements near promoter regions in rice”.
# Some of the results follow.
# Biological target: T1, OsWOX13 (Oryza sativa, UniProt Q5QMM3 1-267)
# T1 sequence: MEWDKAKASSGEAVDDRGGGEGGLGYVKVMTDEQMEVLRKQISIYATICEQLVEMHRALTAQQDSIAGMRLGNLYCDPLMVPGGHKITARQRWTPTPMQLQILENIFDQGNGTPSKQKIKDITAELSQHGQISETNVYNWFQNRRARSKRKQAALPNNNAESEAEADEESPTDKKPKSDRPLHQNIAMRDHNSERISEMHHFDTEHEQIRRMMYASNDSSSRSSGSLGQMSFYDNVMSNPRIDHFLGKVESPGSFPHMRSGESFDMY
# Assay: protein-binding microarray (RPBM); PBS, 2% BSA, 51.3 ng/ul salmon testes DNA, 50 uM zinc acetate, 200 nM TF, 25 C, 1 h; high values mean tight binding
# Details: protein: recombinant; tags: N-terminal polyhistidine and DsRed monomer fusion (pET32a); label: CyDye5-dUTP incorporated in the synthesized complementary strand; 3' TTTTT single-stranded linker to array surface; dsDNA, one strand shown
# Method in brief: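 Binding signal here means per-feature fluorescence intensity in arbitrary units. The values were read on an Axon 4000B scanner after a custom Agilent array, double-stranded by primer extension with Cy5-dUTP, was incubated with 200 nM protein at 25 °C for 1 h in PBS with 2% BSA, salmon testes DNA and 50 µM zinc acetate, then washed. The proteins were transcription factors with an N-terminal polyhistidine tag and DsRed, expressed in E. coli BL21-CodonPlus and purified on Ni–NTA.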
row,Sequence,binding signal
1,GTTAATAGCTTTGTTAATCTACTCCACCGGTTCGACAGAACGGAGTCACCTAGTGCAG,4090 fluorescence intensity (a.u.)
2,GCTTTTATGATTTTCCAAAGAATTAATTTTCGAATGGGCTCGGAGTCACCTAGTGCAG,4920 fluorescence intensity (a.u.)
3,CTTAAATTTCATTATCAAAGTGCCCTCTAAATTCTTTAGACGGAGTCACCTAGTGCAG,6920 fluorescence intensity (a.u.)
4,GTTAAATATTGACAAAATTTAGCATCAAAACCGTAGAGACCGGAGTCACCTAGTGCAG,17900 fluorescence intensity (a.u.)
5,CATAACATGAATAAACCGGATAAATATTGGACACCCAATGCGGAGTCACCTAGTGCAG,4660 fluorescence intensity (a.u.)
6,ATAAATTGCAGGGCAAACCTGTTGCTCACGACGAGAGAGCCGGAGTCACCTAGTGCAG,6780 fluorescence intensity (a.u.)
7,AAGATAGATAGATTCATCGCGATCGATCGAGCGGGAGGTACGGAGTCACCTAGTGCAG,22500 fluorescence intensity (a.u.)
8,ATGTAAATTTAAATCTCTCATATTATATCATGATAGCACACGGAGTCACCTAGTGCAG,30700 fluorescence intensity (a.u.)
9,TTCAAATCATTGATGCACACTAGCACTAACCACAGCCAGACGGAGTCACCTAGTGCAG,15900 fluorescence intensity (a.u.)
10,ATGTGATTACGGCATTCTCTGCCGATTGCCACTCTGTTCTCGGAGTCACCTAGTGCAG,22900 fluorescence intensity (a.u.)
11,GTAAAATTGGGCTTGTTAAACTTGGTAGGCTTTAGCTCTGCGGAGTCACCTAGTGCAG,4400 fluorescence intensity (a.u.)
12,CCTTAATTAAACTATATAACAATAATAAAATTAAAATAGCCGGAGTCACCTAGTGCAG,10900 fluorescence intensity (a.u.)
13,ACAATTAATTCATTGTCAACTAATGGAATAGGGATAGAGGCGGAGTCACCTAGTGCAG,19100 fluorescence intensity (a.u.)
14,GTATAACTGGTTGAGTTGGTGTGTGGGGCTACCTTTCTTCCGGAGTCACCTAGTGCAG,5440 fluorescence intensity (a.u.)
15,GCATTATCATTTATATTTACTGATGGAAACACCTACTAATCGGAGTCACCTAGTGCAG,7460 fluorescence intensity (a.u.)
16,AGGCTATATCTACACTGTGTAATTGATAAGGATGAACTAACGGAGTCACCTAGTGCAG,10500 fluorescence intensity (a.u.)
17,ATGTTGATGAGAGGAATGAATTATTCCAGCACACTGGTACCGGAGTCACCTAGTGCAG,6030 fluorescence intensity (a.u.)
18,ATAGAAGAAATTGACATTGGCACGCCACTTCTCAAAACTTCGGAGTCACCTAGTGCAG,10300 fluorescence intensity (a.u.)
19,GTGTTTAAATTAATTTAAAAGTAAACTAAGTGTGGAAATACGGAGTCACCTAGTGCAG,25300 fluorescence intensity (a.u.)
20,TCCTAACTAGTTAATCACATGAGGAACACCATAACAATTCCGGAGTCACCTAGTGCAG,11500 fluorescence intensity (a.u.)
21,TTTCTGATCGATGCGCGGTTGATTGATCTTGGTGCGGACGCGGAGTCACCTAGTGCAG,20400 fluorescence intensity (a.u.)
22,GGTCAAGATTTCTGGTATTGTGATTGAGGGATATGATTTACGGAGTCACCTAGTGCAG,8250 fluorescence intensity (a.u.)
23,GTATAAATTTGGACAGATTGTGATTAGATTTATAGTCCTACGGAGTCACCTAGTGCAG,29800 fluorescence intensity (a.u.)
24,AATCTGATTTAATAATCTGGATTACAATAATCTTAAGCTGCGGAGTCACCTAGTGCAG,33000 fluorescence intensity (a.u.)
25,CACGGTAAATCACGAGTAATAATTTTAGGATTTAAGTTCTCGGAGTCACCTAGTGCAG,9550 fluorescence intensity (a.u.)
26,GTTAACTGAAACAGTCTGCTCTGAATTCTGAAGATTGCAACGGAGTCACCTAGTGCAG,11300 fluorescence intensity (a.u.)
27,ACTTTGTTAATGTAAATTAATGATCTCACTGTTCATACTACGGAGTCACCTAGTGCAG,21300 fluorescence intensity (a.u.)

row,Sequence,binding signal
1,CCCACACAGCATTCAGGCCTCGTTCTTCGCACTGGGCCCTCGGAGTCACCTAGTGCAG,6660 fluorescence intensity (a.u.)
2,TTATTGTGGTAATTTGTGTATGTTGCTAATCTGCGATTCACGGAGTCACCTAGTGCAG,3450 fluorescence intensity (a.u.)
3,ACATAAACTGATATTTTAGAGTATTATTTTATCGAAGCGCCGGAGTCACCTAGTGCAG,13900 fluorescence intensity (a.u.)
4,CAACAACGATTGTTTTAATTATTAGAGATTAGTGGATAACCGGAGTCACCTAGTGCAG,6060 fluorescence intensity (a.u.)
5,ATATTAACACACGATTAATTAAGTTTTAATTATTGAAAACCGGAGTCACCTAGTGCAG,14700 fluorescence intensity (a.u.)
6,TATCTAAATTACTTTTAGATTTCACTAAGTTACTTCTTAACGGAGTCACCTAGTGCAG,7540 fluorescence intensity (a.u.)
7,GCAAGTGTGATTGATCATTACTTGCTTGGTCTGATGGTTGCGGAGTCACCTAGTGCAG,48300 fluorescence intensity (a.u.)
8,TCTGATTGACGGTGTTTGCAAGCAGAGTTCCTCTTCTTGGCGGAGTCACCTAGTGCAG,61500 fluorescence intensity (a.u.)
9,CTTAATTATCCTGATGAAAGGCTGAAATTTCAAGATCCAACGGAGTCACCTAGTGCAG,37600 fluorescence intensity (a.u.)
10,TCAATTAATCATGTGTTAATAACTCACGTCGTTTTACATACGGAGTCACCTAGTGCAG,3440 fluorescence intensity (a.u.)
11,GACAGTGATTGCGGCAGCGGCAGTCATAGGCGACGATGAGCGGAGTCACCTAGTGCAG,18800 fluorescence intensity (a.u.)
12,GTTTAATTCACGCTAAAATTGGAACGGTGTGATGGAAAAGCGGAGTCACCTAGTGCAG,5360 fluorescence intensity (a.u.)
13,TTTGGGCTAGCTCGTTGATTGACACGTCTCCTGAGCATTTCGGAGTCACCTAGTGCAG,22400 fluorescence intensity (a.u.)
14,ATCGACAGATAATTAAATCGATCATCAAATGATCAATTTCCGGAGTCACCTAGTGCAG,4580 fluorescence intensity (a.u.)
15,CCTTTAATTGCAGAGTCAAGATGGACATAGTTATTTACACCGGAGTCACCTAGTGCAG,21100 fluorescence intensity (a.u.)
16,TGATAATTTTGGCCATTCCTAATCTGCAAACAGATCATCTCGGAGTCACCTAGTGCAG,8780 fluorescence intensity (a.u.)
17,GTTGATAGCTTATTTAATGTTATGGATACCATTCTAGTCACGGAGTCACCTAGTGCAG,18800 fluorescence intensity (a.u.)
18,GCAAAATTAATCTGTCCGTACGGCTGAATAATCCATTCCCCGGAGTCACCTAGTGCAG,5070 fluorescence intensity (a.u.)
19,AGGTGATTGGTAAGGAAAATCGCAGACAAATCAACGGTCGCGGAGTCACCTAGTGCAG,47500 fluorescence intensity (a.u.)
20,GTATAATTAGTCTATGATTAGCCATAAGTACTACAGTAACCGGAGTCACCTAGTGCAG,43600 fluorescence intensity (a.u.)
21,AATAATTGTTTCTTAGTCTTTGGGTCAAAGGTGGTTGTGCCGGAGTCACCTAGTGCAG,37800 fluorescence intensity (a.u.)
22,CGTAACTCTATGATTTCTATCATCTTACATCTTGATCACTCGGAGTCACCTAGTGCAG,8490 fluorescence intensity (a.u.)
23,GATTTAATATGATTAGATTACAATTACAACAGATTAGAGCCGGAGTCACCTAGTGCAG,37500 fluorescence intensity (a.u.)
24,CTATTAGATTGGTTATAGATTAATTGGAGCTAATAATAGGCGGAGTCACCTAGTGCAG,46300 fluorescence intensity (a.u.)
25,TCCTCCTCCTCGATTGATTGCCCTCCTCTTCTCCCTCCTCCGGAGTCACCTAGTGCAG,19800 fluorescence intensity (a.u.)
26,TCTACTAATTGGTCGAACTTTCAATATAGAATTACAAAATCGGAGTCACCTAGTGCAG,4970 fluorescence intensity (a.u.)
27,AGATATAACAGCCAATCATATTTTCGGCCCTCATCAGTAACGGAGTCACCTAGTGCAG,20200 fluorescence intensity (a.u.)
